Test results as given in the supplement of paper PMC10126150.
Values marked as one replicate rest on one cluster of the flow cell; about a third of the high ones do not repeat.

tested on: ATP; assay: switch fluorescence ratio, 500 uM ATP over buffer (Cy3 cluster intensity, sum of 5 cycles each) (fold (ratio)); higher = stronger signal-on switching upon ATP binding; sequences stand for … in TCGTCGGCAGCGTCAGATGTGTATAAGAGACAGTTTTTTTTTTTTTTTTTTTTTTTTT…TC; settings: aptamer strand: ATP DNA aptamer (quencher-CACCTGGGGGAGTATTGCGGAGGAAGG + anchor), 100 nM annealed; ATP concentration: 500 uM; one replicate
Summary of the method: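 Clusters with intensities outside 100-1000 RFU were excluded. The remaining Cy3-labelled switching-strand clusters on a modified Illumina MiSeq flow-cell had been annealed to 100 nM quencher-labelled ATP aptamer and imaged in selection buffer, then after 15 min with 500 uM ATP at 22 °C, for five cycles separated by NaOH stripping and re-annealing. The fluorescence ratio, averaged per switch-domain sequence, is each cluster's summed target-cycle Cy3 intensity over its summed buffer-cycle Cy3 intensity.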
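Note: ATP exposure 15 min at 22 °C before imaging.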

| Sequence | switch fluorescence ratio |
| --- | --- |
| GTCCGGCAAG | 1.07 |
| GTCCGGCATA | 1.2 |
| GTCCGGGTTG | 1.26 |
| GTCCGTACTG | 1.06 |
| GTCCTACAA | 1.04 |
| GTCCTCGCGC | 2.27 |
| GTCCTGCCCG | 1.02 |
| GTCCTGTTGA | 0.967 |
| GTCCTTTACG | 0.983 |
| GTCGAAGAGG | 0.946 |
| GTCGACCACG | 0.977 |
| GTCGACTTAT | 1 |
| GTCGCAAAAT | 1.1 |
| GTCGCAACGA | 1.04 |
| GTCGCACGAC | 1.02 |
| GTCGCACGGT | 0.978 |
| GTCGCACGTT | 1.03 |
| GTCGCACTCC | 1.83 |
| GTCGCAGGGC | 1.44 |
| GTCGCATATG | 1.08 |
| GTCGCCGGCT | 0.965 |
| GTCGCTCAC | 1.17 |
| GTCGGAATGT | 1.02 |
| GTCGGAGCGG | 1.03 |
| GTCGGGAGTT | 1.01 |

| Sequence | switch fluorescence ratio |
| --- | --- |
| GTCGGGCACA | 1.05 |
| GTCGGGCCCT | 1.02 |
| GTCGGGCTGG | 0.98 |
| GTCGGGTGTC | 1.03 |
| GTCGGTTTGT | 0.969 |
| GTCGTAGCAG | 1.01 |
| GTCGTCCGGT | 1.02 |
| GTCGTCCGTT | 1 |
| GTCGTCGCAT | 1 |
| GTCGTCTGGA | 0.993 |
| GTCGTGTC | 0.945 |
| GTCGTTGTCT | 1.04 |
| GTCTAATTTA | 1.01 |
| GTCTACGTCC | 1.03 |
| GTCTAGCAAG | 1.03 |
| GTCTATGGTC | 0.973 |
| GTCTCACCGT | 1.04 |
| GTCTGAACCT | 2.01 |
| GTCTGAATA | 0.981 |
| GTCTGGCTAA | 1.02 |
| GTCTGGTTTG | 0.96 |
| GTCTTATACT | 1.01 |
| GTCTTTGACG | 0.96 |
| GTGAAAAGGT | 1.04 |
| GTGAAACTGT | 1 |

| Sequence | switch fluorescence ratio |
| --- | --- |
| GTGAAATTGC | 0.931 |
| GTGAACCTGT | 0.986 |
| GTGAAGACGG | 1.01 |
| GTGAATGCCA | 1 |
| GTGACGCGGG | 0.991 |
| GTGAGAAACC | 1.03 |
| GTGAGACGAA | 1 |
| GTGAGACTCA | 1.03 |
| GTGAGATACC | 0.965 |
| GTGAGGAAGA | 1.03 |
| GTGAGGCATC | 0.946 |
| GTGAGGGCCT | 0.993 |
| GTGAGTAAAA | 1 |
| GTGAGTGAGC | 1.05 |
| GTGATAATCT | 1.51 |
| GTGATCAGGA | 1 |
| GTGATGGCTG | 0.9 |
| GTGATGTAAA | 0.983 |
| GTGATGTAGG | 0.936 |
| GTGATGTCGG | 1.05 |
| GTGATTCTG | 0.98 |
| GTGATTCTGA | 1.01 |
| GTGATTTGGA | 0.981 |
| GTGCAACCCT | 1.06 |
| GTGCAAGCTG | 1.02 |

| Sequence | switch fluorescence ratio |
| --- | --- |
| GTGCAATTGA | 1.08 |
| GTGCAGCGTA | 1.02 |
| GTGCATAAGG | 1.05 |
| GTGCATGTGC | 1.01 |
| GTGCCAGGCA | 0.997 |
| GTGCCCGGGT | 1.04 |
| GTGCCCGTAT | 0.993 |
| GTGCCCTCTT | 0.963 |
| GTGCCGAAAA | 0.971 |
| GTGCGCCCGA | 1.01 |
| GTGCGGGGTT | 0.996 |
| GTGCGTACCG | 0.975 |
| GTGCGTGGGC | 1.02 |
| GTGCTAAGCG | 1.03 |
| GTGCTAGGTA | 0.973 |
| GTGCTTGACC | 1.03 |
| GTGCTTGTGG | 1 |
| GTGGACAGCT | 1.01 |
| GTGGATGTCT | 1.09 |
| GTGGCACGGG | 1 |
| GTGGCAGCCC | 1.01 |
| GTGGCATCTT | 1 |
| GTGGCGAAAA | 0.963 |
| GTGGCGCCCT | 1.18 |
| GTGGCGCGGG | 0.998 |
